ChEMBL document CHEMBL4888484, “Replenishing the malaria drug discovery pipeline: Screening and hit evaluation of the MMV Hit Generation Library 1 (HGL1) against asexual blood stage Plasmodium falciparum ,using a nano luciferase reporter read-out” (2022)
Out of some 150,000 compounds screened, about 540 (0.36%) showed an effect of 50% or more. This is one part of the list.

Each compound was assayed on Plasmodium falciparum (assay: Primary screen in NF54 nanoGlo assay, in single point, at 2uM, 72h; a lower Z score goes with more inhibition). Details: timepoint 72 hour.
Type: functional, Erythrocyte

First: CC(C)(CO)C(=O)N1CC[C@H](O)[C@@H](C2CCCC2)C1
Second: CC1(C(=O)N2CC3CCCCC3C2)CCCC1 (centres undefined)
The “% Inhibition” value of the first is higher: -11% for the first, -24% for the second.

O=C(NCCC1CS(=O)(=O)C1)N[C@@H]1CCCc2ccc(Cl)cc21 and O=C(NCCc1nc(-c2ccccc2)no1)C1CCCC1 are the same in “% Inhibition” value: -4% for the first, -4% for the second.

Compared with Fc1c(Cl)cccc1OCc1csc([C@@H]2CCCO2)n1, COc1ccnc(NC2CCOC(c3ccccc3)C2)n1 (centres undefined) is higher in “% Inhibition” value: -9% for the first, 0% for the second.

First: CCCN(C(=O)N(C)C)[C@H]1CC(=O)N(C)C1=O
Second: CCC[C@H]1CCCCN1C(=O)CNS(=O)(=O)CC
The “% Inhibition” value of the first is lower: -6% for the first, -1% for the second.

O=C(c1cc2ccccc2[nH]1)N(CCN1CCOCC1)C1CCOCC1 and CC1(C)C(NC2CCN(CC3CCOC3)CC2)CC1c1ccccc1 (centres undefined) are the same in “% Inhibition” value: -7% for the first, -7% for the second.

Compared with Cn1cc(CN2CCN(C(=O)c3nc[nH]n3)CC2)c(-c2ccccc2F)n1, Cc1cccc(NC(=O)N2CCN(C(=O)c3ccc(C)nc3)CC2)c1 is higher in “% Inhibition” value: 0% for the first, 9% for the second.

Going from CCOc1ccc(S(=O)(=O)N2CCN(Cc3nonc3C)CC2)cc1 to O=C(O)c1ccc(COc2ccc(CN3CCCN4CCC[C@H]4C3)cc2)o1, the “% Inhibition” value falls from -9% to -10%.

First: COc1ccc(-c2nnc(C(C)=O)n2Nc2ccc(C)cc2)cc1
Second: Cc1ccc(-c2nc(C)c([C@H](C)NC(=O)c3nc(=O)[nH][nH]3)s2)cc1
The “% Inhibition” value of the first is higher: -6% for the first, -12% for the second.

First: CCC(=O)N(Cc1ccc(C)cc1)c1ccc(CC(=O)NCC2CC2)cc1
Second: CCC(=O)N1CCc2ccc(OCc3ccc(C(=O)Nc4ccc(OC)cc4)o3)cc2[C@@H]1c1cccc(C)c1
The “% Inhibition” value of the first is higher: -6% for the first, -13% for the second.

Going from Cc1ccc2nc(-c3ccco3)nc(N[C@@H](C)c3ccccc3)c2c1 to COc1ccc(N2C(=O)c3ccccc3[C@@H]2c2cn(C)c3ccccc23)cc1, the “% Inhibition” value rises from -13% to 7%.

Compared with CCCOc1ccc(NS(=O)(=O)c2cccc(-n3cnnn3)c2)cc1OCCC, COc1ccc(-c2cnn3c(C)cc(C)nc23)cc1S(=O)(=O)Nc1cccc(Cl)c1C is lower in “% Inhibition” value: 2% for the first, -7% for the second.

First: COCC(COC)S(=O)(=O)N[C@@H](C)Cc1c(C)noc1C
Second: CC(C)c1cc(C(=O)NC[C@@H](C)CCO)on1
The “% Inhibition” value of the first is lower: -6% for the first, -1% for the second.

First: CC1CCCCC1NC(=O)C1(C)Cn2c(cc3occc32)C(=O)N1Cc1cccnc1 (centres undefined)
Second: COc1nc2c(cc1CNC(=O)c1c(C)cccc1C)C(=O)N(C1CCCC1)C2
The “% Inhibition” value of the first is higher: -5% for the first, -14% for the second.

Compared with CCN1CCCN(Cc2cc3cc(C)ccc3nc2N2CCC[C@H](O)C2)CC1, COc1c(C)cc(C)cc1CN1CC[C@H](N2CCN(C)CC2)[C@H](CCCO)C1 is lower in “% Inhibition” value: 10% for the first, -5% for the second.

Going from CN1CC[C@@]2(CCC1=O)CN(S(=O)(=O)c1ccccc1C#N)CCN2C to Cc1cc(N2CCC(CCCc3ccccc3)(C(=O)O)CC2)nc(N)n1, the “% Inhibition” value falls from 2% to -12%.

Going from NC(=O)[C@@H]1CCCN1CCCC1CCCC1 to CCc1n[nH]c(C(=O)N[C@H]2CC[C@@H]3CCC[C@@H]32)c1C, the “% Inhibition” value falls from 0% to -8%.

First: CC(C)(C)c1ncc(C(=O)N2CCOCc3ccccc32)cn1
Second: CCc1nccn1CCCNc1ccc(C(C)=O)cn1
The “% Inhibition” value of the first is lower: -8% for the first, -1% for the second.

Going from O=C(NCc1cccs1)c1nn(-c2ccccc2)c2ccccc2c1=O to C[C@H](Nc1ccc(-c2cnc(C3CC3)o2)cc1)c1ccc(C(F)F)nc1, the “% Inhibition” value rises from -6% to -5%.

First: CCN(CCC(F)(F)F)C(=O)c1ccc(S(N)(=O)=O)c(C)c1
Second: CCC(CC)CS(=O)(=O)NCc1nc(-c2cccs2)n[nH]1
The “% Inhibition” value of the first is higher: 3% for the first, -4% for the second.

First: CCc1c(C(=O)N2CCC3(CC2)[C@H](O)C[C@@H]3OCCN)csc1C
Second: CCn1ncc2ncn(C[C@H]3C[C@@H](OC)C3)c(=O)c21
The “% Inhibition” value of the first is higher: 4% for the first, -14% for the second.

First: COc1ccc(C2(CN[C@@H](C)c3cnn(C)c3)CC2)cc1
Second: CCCCN1CCN(c2cc(-n3ccnc3C)n3nccc3n2)CC1
The “% Inhibition” value of the first is lower: -11% for the first, -1% for the second.

Going from CC(C)(CO)C(=O)N1CC[C@H](O)[C@@H](C2CCCC2)C1 to CC1(C(=O)N2CC3CCCCC3C2)CCCC1 (centres undefined), the Z score rises from 1.85 to 2.4.

Going from O=C(NCCC1CS(=O)(=O)C1)N[C@@H]1CCCc2ccc(Cl)cc21 to O=C(NCCc1nc(-c2ccccc2)no1)C1CCCC1, the Z score falls from 0.54 to 0.46.

Compared with Fc1c(Cl)cccc1OCc1csc([C@@H]2CCCO2)n1, COc1ccnc(NC2CCOC(c3ccccc3)C2)n1 (centres undefined) is lower in Z score: 1.05 for the first, 0.04 for the second.

Compared with CCCN(C(=O)N(C)C)[C@H]1CC(=O)N(C)C1=O, CCC[C@H]1CCCCN1C(=O)CNS(=O)(=O)CC is lower in Z score: 0.55 for the first, 0.06 for the second.

Compared with O=C(c1cc2ccccc2[nH]1)N(CCN1CCOCC1)C1CCOCC1, CC1(C)C(NC2CCN(CC3CCOC3)CC2)CC1c1ccccc1 (centres undefined) is lower in Z score: 1.11 for the first, 1.01 for the second.

Going from Cn1cc(CN2CCN(C(=O)c3nc[nH]n3)CC2)c(-c2ccccc2F)n1 to Cc1cccc(NC(=O)N2CCN(C(=O)c3ccc(C)nc3)CC2)c1, the Z score falls from -0.06 to -1.09.

First: CCOc1ccc(S(=O)(=O)N2CCN(Cc3nonc3C)CC2)cc1
Second: O=C(O)c1ccc(COc2ccc(CN3CCCN4CCC[C@H]4C3)cc2)o1
The Z score of the first is lower: 1.15 for the first, 1.75 for the second.

First: COc1ccc(-c2nnc(C(C)=O)n2Nc2ccc(C)cc2)cc1
Second: Cc1ccc(-c2nc(C)c([C@H](C)NC(=O)c3nc(=O)[nH][nH]3)s2)cc1
The Z score of the first is lower: 0.86 for the first, 1.73 for the second.

Compared with CCC(=O)N(Cc1ccc(C)cc1)c1ccc(CC(=O)NCC2CC2)cc1, CCC(=O)N1CCc2ccc(OCc3ccc(C(=O)Nc4ccc(OC)cc4)o3)cc2[C@@H]1c1cccc(C)c1 is higher in Z score: 0.58 for the first, 2.14 for the second.

Going from Cc1ccc2nc(-c3ccco3)nc(N[C@@H](C)c3ccccc3)c2c1 to COc1ccc(N2C(=O)c3ccccc3[C@@H]2c2cn(C)c3ccccc23)cc1, the Z score falls from 1.3 to -0.85.

Going from CCCOc1ccc(NS(=O)(=O)c2cccc(-n3cnnn3)c2)cc1OCCC to COc1ccc(-c2cnn3c(C)cc(C)nc23)cc1S(=O)(=O)Nc1cccc(Cl)c1C, the Z score rises from -0.32 to 0.69.

Compared with COCC(COC)S(=O)(=O)N[C@@H](C)Cc1c(C)noc1C, CC(C)c1cc(C(=O)NC[C@@H](C)CCO)on1 is lower in Z score: 0.62 for the first, 0.17 for the second.

First: CC1CCCCC1NC(=O)C1(C)Cn2c(cc3occc32)C(=O)N1Cc1cccnc1 (centres undefined)
Second: COc1nc2c(cc1CNC(=O)c1c(C)cccc1C)C(=O)N(C1CCCC1)C2
The Z score of the first is lower: 0.93 for the first, 1.78 for the second.

First: CCN1CCCN(Cc2cc3cc(C)ccc3nc2N2CCC[C@H](O)C2)CC1
Second: COc1c(C)cc(C)cc1CN1CC[C@H](N2CCN(C)CC2)[C@H](CCCO)C1
The Z score of the first is lower: -1.52 for the first, 0.47 for the second.

Going from CN1CC[C@@]2(CCC1=O)CN(S(=O)(=O)c1ccccc1C#N)CCN2C to Cc1cc(N2CCC(CCCc3ccccc3)(C(=O)O)CC2)nc(N)n1, the Z score rises from -0.24 to 1.28.

Compared with NC(=O)[C@@H]1CCCN1CCCC1CCCC1, CCc1n[nH]c(C(=O)N[C@H]2CC[C@@H]3CCC[C@@H]32)c1C is higher in Z score: 0.04 for the first, 1.46 for the second.

First: CC(C)(C)c1ncc(C(=O)N2CCOCc3ccccc32)cn1
Second: CCc1nccn1CCCNc1ccc(C(C)=O)cn1
The Z score of the first is higher: 1.54 for the first, 0.13 for the second.

Going from O=C(NCc1cccs1)c1nn(-c2ccccc2)c2ccccc2c1=O to C[C@H](Nc1ccc(-c2cnc(C3CC3)o2)cc1)c1ccc(C(F)F)nc1, the Z score rises from 0.82 to 0.94.

First: CCN(CCC(F)(F)F)C(=O)c1ccc(S(N)(=O)=O)c(C)c1
Second: CCC(CC)CS(=O)(=O)NCc1nc(-c2cccs2)n[nH]1
The Z score of the first is lower: -0.38 for the first, 0.86 for the second.

Compared with CCc1c(C(=O)N2CCC3(CC2)[C@H](O)C[C@@H]3OCCN)csc1C, CCn1ncc2ncn(C[C@H]3C[C@@H](OC)C3)c(=O)c21 is higher in Z score: -0.66 for the first, 1.58 for the second.

Going from COc1ccc(C2(CN[C@@H](C)c3cnn(C)c3)CC2)cc1 to CCCCN1CCN(c2cc(-n3ccnc3C)n3nccc3n2)CC1, the Z score falls from 1.55 to 0.16.
